#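 Five compound concentrations were applied to cells in 96-well plates for 48 hours; endpoints were derived by simple linear interpolation of the resulting dose-response curve. GI50 marks 50% less growth. TGI: total growth inhibition.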
# System: NCI-H322M lung
# Assay: NCI anticancer screen, dose series, 48 h
SMILES,GI50,TGI
CN(C)c1ccnc(CNCCSC2(c3ccc(C(F)(F)F)cc3)c3ccccc3C=Cc3ccccc32)c1,1.69 µM,16.1 µM
CCOc1ccccc1[C@H]1C(C(=O)c2ccc(Cl)cc2)C2(N[C@@H]1c1ccccc1)C(=O)Nc1ccccc12 (stereo partly drawn),8.61 µM,> 39.8 µM
COC(=O)c1ccc(-n2cc(CCCN(CCNc3ccnc4cc(Cl)ccc34)C(=O)CCC(=O)O[C@@H]3O[C@@H]4OC5(C)CC[C@H]6[C@H](C)CC[C@@H]([C@H]3C)[C@@]46OO5)nn2)cc1,> 10.8 µM,> 10.8 µM
COc1ccc2[nH]c(=O)c(CSc3nccc(-c4ccc(OC)c(OC)c4)n3)cc2c1,12.8 µM,26.3 µM
